Reference: the supplement of paper PMC4967469

Compound: C=CC(=O)Nc1cccc(Nc2nc(NC3CCC(N(C)C)CC3)nc3c2ncn3C(C)C)c1 [WZ3105]
Assay: Viability of human cancer cell lines after 72 h of drug (GDSC screen)
Settings: top dose inferred
Protocol: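 Human cancer cell lines in 384-well plates, medium with 10% serum, drug for 72 h over a 256-fold dose range (nine 2-fold or five 4-fold steps up to the top dose). Adherent lines were fixed and stained with the nucleic acid dye Syto60, suspension lines read with resazurin; signal relative to control wells, capped at 0 and 100%. One two-parameter sigmoid per drug and line, fitted in a mixed model over all curves with the slope shared within a line.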

Row | Cell Line | AUC | IC50 [µM]
1 | SUP-HD1 (Hodgkin lymphoma, suspension, top dose 1.28 µM) | 0.643 | 0.195
2 | SUP-M2 (anaplastic large cell lymphoma, suspension, top dose 1.28 µM) | 0.564 | 0.114
3 | SUP-T1 (T-cell lymphoblastic leukaemia, suspension, top dose 10.24 µM) | 0.203 | 0.0943
4 | SW13 (adrenal gland, adherent, top dose 1.28 µM) | 0.954 | > 1.28
5 | SW48 (large intestine, adherent, top dose 10.24 µM) | 0.768 | 3.83
6 | SW156 (kidney, adherent, top dose 1.28 µM) | 0.969 | > 1.28
7 | SW620 (large intestine, adherent, top dose 10.24 µM) | 0.345 | 0.252
8 | SW626 (ovary, adherent, top dose 1.28 µM) | 0.775 | 0.604
9 | SW684 (fibrosarcoma, adherent, top dose 1.28 µM) | 0.977 | > 1.28
10 | SW756 (cervix, adherent, top dose 1.28 µM) | 0.923 | > 1.28
11 | SW780 (bladder, adherent, top dose 1.28 µM) | 0.936 | > 1.28
12 | SW837 (large intestine, adherent, top dose 1.28 µM) | 0.914 | > 1.28
13 | SW872 (soft tissue, adherent, top dose 1.28 µM) | 0.989 | > 1.28
14 | SW900 (lung squamous cell carcinoma, adherent, top dose 1.28 µM) | 0.916 | > 1.28
15 | SW948 (large intestine, adherent, top dose 10.24 µM) | 0.796 | 7.64
16 | SW954 (urogenital system, adherent, top dose 1.28 µM) | 0.869 | 1.2
17 | SW962 (urogenital system, adherent, top dose 1.28 µM) | 0.939 | > 1.28
18 | SW982 (soft tissue, adherent, top dose 1.28 µM) | 0.885 | > 1.28
19 | SW1088 (glioma, adherent, top dose 1.28 µM) | 0.981 | > 1.28
20 | SW1116 (large intestine, adherent, top dose 1.28 µM) | 0.983 | > 1.28
21 | SW1271 (small cell lung carcinoma, adherent, top dose 1.28 µM) | 0.766 | 0.544

Row | Cell Line | AUC | IC50 [µM]
22 | SW1417 (large intestine, adherent, top dose 1.28 µM) | 0.912 | > 1.28
23 | SW1463 (large intestine, adherent, top dose 1.28 µM) | 0.94 | > 1.28
24 | SW1573 (lung adenocarcinoma, adherent, top dose 1.28 µM) | 0.872 | > 1.28
25 | SW1710 (bladder, adherent, top dose 1.28 µM) | 0.977 | > 1.28
26 | SW1783 (glioma, adherent, top dose 1.28 µM) | 0.989 | > 1.28
27 | SW1990 (pancreas, adherent, top dose 1.28 µM) | 0.941 | > 1.28
28 | Saos-2 (osteosarcoma, adherent, top dose 1.28 µM) | 0.923 | > 1.28
29 | SiHa (cervix, adherent, top dose 1.28 µM) | 0.941 | > 1.28
30 | T47D (breast, adherent, top dose 1.28 µM) | 0.744 | 0.597
31 | T84 (large intestine, adherent, top dose 1.28 µM) | 0.963 | > 1.28
32 | T98G (glioma, adherent, top dose 1.28 µM) | 0.957 | > 1.28
33 | T-24 (bladder, adherent, top dose 1.28 µM) | 0.967 | > 1.28
34 | T-T (oesophagus, adherent, top dose 1.28 µM) | 0.786 | 0.549
35 | TALL-1 (T-cell lymphoblastic leukaemia, suspension, top dose 1.28 µM) | 0.877 | 1.19
36 | TC-71 (Ewing sarcoma, adherent, top dose 1.28 µM) | 0.672 | 0.22
37 | TCCSUP (bladder, adherent, top dose 1.28 µM) | 0.982 | > 1.28
38 | TE-1 (oesophagus, adherent, top dose 1.28 µM) | 0.934 | > 1.28
39 | TE-4 (oesophagus, adherent, top dose 1.28 µM) | 0.913 | > 1.28
40 | TE-5 (oesophagus, adherent, top dose 1.28 µM) | 0.925 | > 1.28
41 | TE-6 (oesophagus, adherent, top dose 1.28 µM) | 0.957 | > 1.28

By IC50 is meant the dose at which the fit gives 50% viability; fits outside the tested doses are given as limits. The AUC spans the tested range (256-fold, ending at the top dose) of the same fit; it is 1 without any effect and falls as sensitivity rises. Any top dose called inferred is not printed in the source and was worked back from the curve model.
